Scores whose standard error is large were omitted. The source holds two more conditions with little spread; they are left out. Names with del lack the residues named; names with ins carry added residues between the positions named. For some of these results: The data file names ogerin without a concentration.

We go through 32 variants from the GPR68 mutational scans of Howard et al. (2025).

B1: GPR68, Q15743 (parent)
chain: MGNITADNSSMSCTIDHTIHQTLAPVVYVTVLVVGFPANCLSLYFGYLQIKARNELGVYLCNLTVADLFYICSLPFWLQYVLQHDNWSHGDLSCQVCGILLYENIYISVGFLCCISVDRYLAVAHPFRFHQFRTLKAAVGVSVVIWAKELLTSIYFLMHEEVIEDENQHRVCFEHYPIQAWQRAINYYRFLVGFLFPICLLLASYQGILRAVRRSHGTQKSRKDQIQRLVLSTVVIFLACFLPYHVLLLVRSVWEASCDFAKGVFNAYHFSLLLTSFNCVADPVLYCFVSETTHRDLARLRGACLAFLTCSRTGRAREAYPLGAPEASGKSGAQGEEPELLTKLHPAFQTPNSPGSGGFPTGRLA

The variants in data set [1] derive from B1. Nature of the data set: cAMP reporter score (Enrich2 score, wild type = 0); higher = more signal; HEK293T, FACS bins.
Variants of B1 are the subject of data set [2]. Nature of the data set: surface expression score (Enrich2 score, wild type = 0); higher = more signal; HEK293T, FACS bins.

As for E103_I105del, the cAMP reporter score in data set [1] (pH 5.5) is -1.21; in data set [1] (pH 6), -1.12; in data set [1] (pH 6, modulator: ogerin), -1.3; in data set [1] (pH 6.5, modulator: ogerin), -1.09. Besides, the surface expression score in data set [2] was -2.31.
The like results for E103_N104del were, in that order, -1.1, -1.74, -1.97, -0.327 and -2.62.
As to I105C, the cAMP reporter score in data set [1] (pH 5.5) was 0.596; in data set [1] (pH 6), -0.588; in data set [1] (pH 6, modulator: ogerin), -0.098; in data set [1] (pH 6.5, modulator: ogerin) it was -0.823. In addition, the surface expression score in data set [2] is -1.4.
For I105A, the cAMP reporter score is -0.397 in data set [1] (pH 5.5); 1.93 in data set [1] (pH 6); -0.256 in data set [1] (pH 6, modulator: ogerin); -0.624 in data set [1] (pH 6.5, modulator: ogerin). The surface expression score in data set [2] is 0.583.
The like results for I105L were, in that order, -0.869, -0.202, -0.907, -0.324 and -0.782.
The like results for I105K were, in that order, -0.735, -0.059, -0.722, -0.625 and -0.547.
The like results for I105D were, in that order, -1.21, -1.21, -1.52, -1.34 and -2.51.
Q95L: the cAMP reporter score was -1.6 in data set [1] (pH 5.5); -0.314 in data set [1] (pH 6); -1.43 in data set [1] (pH 6.5, modulator: ogerin).
Turning to Q95V, the cAMP reporter score in data set [1] (pH 5.5) was -1.45; in data set [1] (pH 6, modulator: ogerin), -0.958; in data set [1] (pH 6.5, modulator: ogerin) it was 1.24.
As for Q95I, the cAMP reporter score was -0.336 in data set [1] (pH 5.5); 2.44 in data set [1] (pH 6); 0.328 in data set [1] (pH 6, modulator: ogerin); 2.93 in data set [1] (pH 6.5, modulator: ogerin). Moreover, the surface expression score in data set [2] is -0.745.
For the variant Q95P, the cAMP reporter score in data set [1] (pH 5.5) is -1.56; in data set [1] (pH 6), 0.067; in data set [1] (pH 6, modulator: ogerin), -1.82; in data set [1] (pH 6.5, modulator: ogerin), -0.829. The surface expression score in data set [2] is -3.37.
Q95W: the cAMP reporter score in data set [1] (pH 5.5) was -0.543; in data set [1] (pH 6, modulator: ogerin) it was -0.602; in data set [1] (pH 6.5, modulator: ogerin), 0.077.
With Q95D, the cAMP reporter score in data set [1] (pH 5.5) is 0.406; in data set [1] (pH 6, modulator: ogerin), -0.85; in data set [1] (pH 6.5, modulator: ogerin), -0.846.
With Q95T, the cAMP reporter score in data set [1] (pH 5.5) is -0.347; in data set [1] (pH 6, modulator: ogerin) it was 0.378; in data set [1] (pH 6.5, modulator: ogerin), 2.46. Moreover, in data set [2], the surface expression score is -0.178.
Take Q95Y: the cAMP reporter score in data set [1] (pH 5.5) came out at 0.154; in data set [1] (pH 6, modulator: ogerin), 0.448. Besides, the surface expression score in data set [2] was -0.79.
On to Q95A, for which the cAMP reporter score amounted to 1.11 in data set [1] (pH 5.5) and 2.98 in data set [1] (pH 6.5, modulator: ogerin). The surface expression score in data set [2] turned out to be 0.279.
As for Q95K, the cAMP reporter score in data set [1] (pH 5.5) worked out at 0.634; in data set [1] (pH 6), 1.07; in data set [1] (pH 6, modulator: ogerin), 0.772; in data set [1] (pH 6.5, modulator: ogerin) it was 1.62. Further, the surface expression score in data set [2] came out at 1.17.
Turning to Q95C, the cAMP reporter score in data set [1] (pH 5.5) was 0.08; in data set [1] (pH 6), 0.484; in data set [1] (pH 6, modulator: ogerin), 0.283; in data set [1] (pH 6.5, modulator: ogerin), 1.99. In addition, the surface expression score in data set [2] was -0.652.
For Q95S, the cAMP reporter score is 2.19 in data set [1] (pH 5.5); 5.17 in data set [1] (pH 6); 2.72 in data set [1] (pH 6, modulator: ogerin); 5.44 in data set [1] (pH 6.5, modulator: ogerin). For the same variant, the surface expression score in data set [2] was 1.27.
Turning to Q95H, the cAMP reporter score in data set [1] (pH 5.5) was 1.63; in data set [1] (pH 6, modulator: ogerin) it was 2.03; in data set [1] (pH 6.5, modulator: ogerin), 3.17. Moreover, the surface expression score in data set [2] turned out to be 1.7.
Take Q95G: the cAMP reporter score in data set [1] (pH 5.5) amounted to 0.813; in data set [1] (pH 6) it was 2.84; in data set [1] (pH 6, modulator: ogerin), 0.907; in data set [1] (pH 6.5, modulator: ogerin), 1.19. Further, the surface expression score in data set [2] was -1.31.
The like results for Q95R were, in that order, -0.374, -0.071, -0.695, -0.401 and 0.232.
In the case of Q95M, the cAMP reporter score in data set [1] (pH 5.5) came to 0.647; in data set [1] (pH 6) it was 3.12; in data set [1] (pH 6, modulator: ogerin) it was 1.17; in data set [1] (pH 6.5, modulator: ogerin) it was 2.51. For the same variant, the surface expression score in data set [2] came out at 0.295.
For Q95E, the cAMP reporter score in data set [1] (pH 5.5) was 0.422; in data set [1] (pH 6), -1.11; in data set [1] (pH 6, modulator: ogerin), -0.257; in data set [1] (pH 6.5, modulator: ogerin) it was -0.623. Further, the surface expression score in data set [2] was -0.732.
With Q95N, the cAMP reporter score in data set [1] (pH 5.5) was -0.469; in data set [1] (pH 6), 0.496; in data set [1] (pH 6, modulator: ogerin) it was 0.38; in data set [1] (pH 6.5, modulator: ogerin), 1.92. For the same variant, in data set [2], the surface expression score is -0.276.
The like results for Q95F were, in that order, 0.136, 4.71, -0.438, 3.86 and -0.389.
In the same order, the values of Y102_E103insGSG are -0.808, -2.22, -0.672, -0.631 and -2.86.
As for Y102del, the cAMP reporter score in data set [1] (pH 5.5) was -1.4; in data set [1] (pH 6) it was -1.27; in data set [1] (pH 6, modulator: ogerin) it was -1.04; in data set [1] (pH 6.5, modulator: ogerin) it was -0.685.
For C97_I99del, the cAMP reporter score was -1.54 in data set [1] (pH 5.5); -1.7 in data set [1] (pH 6); -1.73 in data set [1] (pH 6, modulator: ogerin); -0.794 in data set [1] (pH 6.5, modulator: ogerin). Also, in data set [2], the surface expression score was -2.27.
The like results for G98F were, in that order, -1.39, -0.33, -2.14, -1.05 and 0.998.
In the same order, the values of G98S are -1.68, -1.04, -1.51, -1.29 and 0.696.
In the same order, the values of G98W are -0.79, -0.199, -0.934, -0.703 and -0.785.
